Results: the supplement of paper PMC12217912
Some of the results follow. Sequences were assembled here from the parent chain. Values near 0.05 are background.

B1: TEV protease; numbered along this chain (parent)
chain: MGESLFKGPRDYNPISSSICHLTNESDGHTTSLYGIGFGPFIITNKHLFRRNNGTLVVQSLHGVFKVKDTTTLQQHLVDGRDMIIIRMPKDFPPFPQKLKFREPQREERICLVTTNFQTKSMSSMVSDTSCTFPSGDGIFWKHWIQTKDGQCGSPLVSTRDGFIVGIHSASNFTNTNNYFTSVPKNFMELLTNQEAQQWVSGWRLNADSVLWGGHKVFMVKPEEPFQPVKEATQL

Variants of: B1
Assay: raw area under fraction-flipped curve 0-4 h after induction (AUC4h, not background-subtracted), DNA-recorder readout of cleavage of the substrate (dimensionless); higher = more cleavage of the substrate by the protease variant
Conditions: temperature: 34 °C; time window: 0-4 h after rhamnose induction
Experimental: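 In vivo DNA recorder in E. coli TOP10(DE3) ΔrhaA at 34 °C. Each TEVp single-site mutant (parent TEVp 0) is paired with a single-site variant of the 7-mer TEVs (canonical ENLYFQ|S). The substrate sits between flexible linkers in a Bxb1-sfGFP-TEVs-SsrA fusion, so cleavage stabilises Bxb1 and speeds flipping of a recombination array, read by NGS. The value is the raw area under the fraction-flipped curve over 0-4 h after rhamnose induction (AUC4h), with ≥20 reads per time point. It is not background-subtracted; inactive controls average about 0.047.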
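Note: Bxb1 expression induced with 0.2% (w/v) L-rhamnose at OD600 near 0.5, cultures sampled hourly, flipped fraction per protease–substrate barcode pair counted by paired-end Illumina sequencing.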

Variant	area with substrate ENAYFQS	area with substrate ENCYFQS	area with substrate ENDYFQS	area with substrate ENEYFQS	area with substrate ENFYFQS	area with substrate ENGYFQS	area with substrate ENHYFQS	area with substrate ENIYFQS	area with substrate ENMYFQS	area with substrate ENNYFQS	area with substrate ENQYFQS	area with substrate ENSYFQS	area with substrate ENVYFQS	area with substrate ENYYFQS	area with substrate ENPYFQS	area with substrate ENKYFQS	area with substrate ENRYFQS	area with substrate ENTYFQS	area with substrate ENWYFQS
MGESLFKGPRDYNPISSSICHLTNESDGHTTSLYGIGFGPFIITNKHLFRRNNGTLVVQSLHGVFKVKDTTTLQQHLVDGRDMIIIRMPKDFPPFPQWLKFREPQREERICLVTTNFQTKSMSSMVSDTSCTFPSGDGIFWKHWIQTKDGQCGSPLVSTRDGFIVGIHSASNFTNTNNYFTSVPKNFMELLTNQEAQQWVSGWRLNADSVLWGGHKVFMVKPEEPFQPVKEATQL [K98W]	0.055	0.0383	0.0452	0.0633	0.0638	0.0628	0.0515	0.0975	0.0796	0.0561	0.0651	0.0629	0.0913	0.0643					
MGESLFKGPRDYNPISSSICHLTNESDGHTTSLYGIGFGPFIITNKHLFRRNNGTLVVQSLHGVFKVKDTTTLQQHLVDGRDMIIIRMPKDFPPFPQKLKFREPQREERICDVTTNFQTKSMSSMVSDTSCTFPSGDGIFWKHWIQTKDGQCGSPLVSTRDGFIVGIHSASNFTNTNNYFTSVPKNFMELLTNQEAQQWVSGWRLNADSVLWGGHKVFMVKPEEPFQPVKEATQL [L112D]	0.0611	0.0504	0.0531	0.0536	0.0815	0.0575	0.0688			0.0593	0.046		0.051	0.0618	0.0614				
MGESLFKGPRDYNPISSSICHLTNESDGHTTSLYGIGFGPFIITNKHLFRRNNGTLVVQSLHGVFKVKDTTTLQQHLVDGRDMIIIRMPKDFPPFPQKLKFREPQREERICKVTTNFQTKSMSSMVSDTSCTFPSGDGIFWKHWIQTKDGQCGSPLVSTRDGFIVGIHSASNFTNTNNYFTSVPKNFMELLTNQEAQQWVSGWRLNADSVLWGGHKVFMVKPEEPFQPVKEATQL [L112K]	0.0536	0.0653	0.0415	0.0623	0.0627	0.0682	0.0559	0.115	0.0793	0.0593	0.0635	0.0623	0.0693		0.0596	0.0702	0.0554	0.0732	0.0523
MGESLFKGPRDYNPISSSICHLTNESDGHTTSLYGIGFGPFIITNKHLFRRNNGTLVVQSLHGVFKVKDTTTLQQHLVDGRDMIIIRMPKDFPPFPQKLKFREPQREERICAVTTNFQTKSMSSMVSDTSCTFPSGDGIFWKHWIQTKDGQCGSPLVSTRDGFIVGIHSASNFTNTNNYFTSVPKNFMELLTNQEAQQWVSGWRLNADSVLWGGHKVFMVKPEEPFQPVKEATQL [L112A]	0.0585		0.0605	0.0562	0.0561	0.0509	0.0592	0.0897	0.065		0.0618	0.0742	0.0627				0.0331	0.0694	
MGESLFKGPRDYNPISSSICHLTNESDGHTTSLYGIGFGPFIITNKHLFRRNNGTLVVQSLHGVFKVKDTTTLQQHLVDGRDMIIIRMPKDFPPFPQKLKFREPQREERICGVTTNFQTKSMSSMVSDTSCTFPSGDGIFWKHWIQTKDGQCGSPLVSTRDGFIVGIHSASNFTNTNNYFTSVPKNFMELLTNQEAQQWVSGWRLNADSVLWGGHKVFMVKPEEPFQPVKEATQL [L112G]	0.0492	0.0655		0.05	0.0536	0.0778	0.04		0.0614		0.0764	0.0493	0.0413	0.0557		0.0611	0.0614	0.0559	0.0391
MGESLFKGPRDYNPISSSICHLTNESDGHTTSLYGIGFGPFIITNKHLFRRNNGTLVVQSLHGVFKVKDTTTLQQHLVDGRDMIIIRMPKDFPPFPQKLKFREPQREQRICLVTTNFQTKSMSSMVSDTSCTFPSGDGIFWKHWIQTKDGQCGSPLVSTRDGFIVGIHSASNFTNTNNYFTSVPKNFMELLTNQEAQQWVSGWRLNADSVLWGGHKVFMVKPEEPFQPVKEATQL [E108Q]	0.0509	0.0468	0.049			0.0555		0.0722	0.0508		0.0541	0.0488	0.0435	0.0621			0.0743	0.0647	0.0393
MGESLFKGPRDYNPISSSICHLTNESDGHTTSLYGIGFGPFIITNKHLFRRNNGTLVVQSLHGVFKVKDTTTLQQHLVDGRDMIIIRMPKDFPPFPQKLKFREVQREERICLVTTNFQTKSMSSMVSDTSCTFPSGDGIFWKHWIQTKDGQCGSPLVSTRDGFIVGIHSASNFTNTNNYFTSVPKNFMELLTNQEAQQWVSGWRLNADSVLWGGHKVFMVKPEEPFQPVKEATQL [P104V]	0.0716		0.0269	0.0562				0.112	0.0499	0.0435	0.0648	0.0653	0.0579		0.0629	0.0694		0.0539	
MGESLFKGPRDYNPISSSICHLTNESDGHTTSLYGIGFGPFIITNKHLFRRNNGTLVVQSLHGVFKVKDTTTLQQHLVDGRDMIIIRMPKDFPPFPQKLKFRECQREERICLVTTNFQTKSMSSMVSDTSCTFPSGDGIFWKHWIQTKDGQCGSPLVSTRDGFIVGIHSASNFTNTNNYFTSVPKNFMELLTNQEAQQWVSGWRLNADSVLWGGHKVFMVKPEEPFQPVKEATQL [P104C]	0.0518	0.0597	0.0569	0.0627	0.0612	0.0546	0.0611	0.078	0.0559	0.035	0.0587	0.0603	0.0663		0.0516	0.0549		0.0418	
MGESLFKGPRDYNPISSSICHLTNESDGHTTSLYGIGFGPFIITNKHLFRRNNGTLVVQSLHGVFKVKDTTTLQQHLVDGRDMIIIRMPKDFPPFPQKLKFRENQREERICLVTTNFQTKSMSSMVSDTSCTFPSGDGIFWKHWIQTKDGQCGSPLVSTRDGFIVGIHSASNFTNTNNYFTSVPKNFMELLTNQEAQQWVSGWRLNADSVLWGGHKVFMVKPEEPFQPVKEATQL [P104N]	0.0475		0.0417	0.0441		0.0391	0.0477	0.0647	0.061		0.0588	0.0516	0.0499		0.0362	0.0417			
MGESLFKGPRDYNPISSSICHLTNESDGHTTSLYGIGFGPFIITNKHLFRRNNGTLVVQSLHGVFKVKDTTTLQQHLVDGRDMIIIRMPKDFPPFPQKLKFRESQREERICLVTTNFQTKSMSSMVSDTSCTFPSGDGIFWKHWIQTKDGQCGSPLVSTRDGFIVGIHSASNFTNTNNYFTSVPKNFMELLTNQEAQQWVSGWRLNADSVLWGGHKVFMVKPEEPFQPVKEATQL [P104S]	0.0474	0.0524	0.0616	0.0534		0.0534	0.0576		0.0499	0.0547	0.0378	0.0421	0.0554		0.0311	0.0431	0.0339	0.0506	0.0452
MGESLFKGPRDYNPISSSICHLTNESDGHTTSLYGIGFGPFIITNKHLFRRNNGTLVVQSLHGVFKVKDTTTLQQHLVDGRDMIIIRMPKDFPPFPQKLKFREAQREERICLVTTNFQTKSMSSMVSDTSCTFPSGDGIFWKHWIQTKDGQCGSPLVSTRDGFIVGIHSASNFTNTNNYFTSVPKNFMELLTNQEAQQWVSGWRLNADSVLWGGHKVFMVKPEEPFQPVKEATQL [P104A]	0.0505		0.0631	0.0701	0.0609	0.0584	0.0558			0.054	0.0611	0.0601	0.0705	0.0541	0.02	0.0433			
MGESLFKGPRDYNPISSSICHLTNESDGHTTSLYGIGFGPFIITNKHLFRRNNGTLVVQSLHGVFKVKDTTTLQQHLVDGRDMIIIRMPKDFPPFTQKLKFREPQREERICLVTTNFQTKSMSSMVSDTSCTFPSGDGIFWKHWIQTKDGQCGSPLVSTRDGFIVGIHSASNFTNTNNYFTSVPKNFMELLTNQEAQQWVSGWRLNADSVLWGGHKVFMVKPEEPFQPVKEATQL [P96T]	0.0714		0.0637					0.103				0.0868			0.0514	0.0642			
MGESLFKGPRDYNPISSSICHLTNESDGHTTSLYGIGFGPFIITNKHLFRRNNGTLVVQSLHGVFKVKDTTTLQQHLVDGRDMIIIRMPKDFPPFWQKLKFREPQREERICLVTTNFQTKSMSSMVSDTSCTFPSGDGIFWKHWIQTKDGQCGSPLVSTRDGFIVGIHSASNFTNTNNYFTSVPKNFMELLTNQEAQQWVSGWRLNADSVLWGGHKVFMVKPEEPFQPVKEATQL [P96W]	0.0497		0.0511	0.0631	0.0542			0.101		0.0641		0.0045	0.0773					0.0603	
MGESLFKGPRDYNPISSSICHLTNESDGHTTSLYGIGFGPFIITNKHLFRRNNGTLVVQSLHGVFKVKDTTTLQQHLVDGRDMIIIRMPKDFPPFPQKLKFREPQREERVCLVTTNFQTKSMSSMVSDTSCTFPSGDGIFWKHWIQTKDGQCGSPLVSTRDGFIVGIHSASNFTNTNNYFTSVPKNFMELLTNQEAQQWVSGWRLNADSVLWGGHKVFMVKPEEPFQPVKEATQL [I110V]	0.0653	0.0659	0.0713	0.0661	0.0709	0.0586	0.0801	0.0952	0.0904	0.0636	0.0623	0.0642	0.078	0.0631	0.0478	0.0599	0.0557	0.0576	0.0497
MGESLFKGPRDYNPISSSICHLTNESDGHTTSLYGIGFGPFIITNKHLFRRNNGTLVVQSLHGVFKVKDTTTLQQHLVDGRDMIIIRMPKDFPPFPQKLKFREPQREERECLVTTNFQTKSMSSMVSDTSCTFPSGDGIFWKHWIQTKDGQCGSPLVSTRDGFIVGIHSASNFTNTNNYFTSVPKNFMELLTNQEAQQWVSGWRLNADSVLWGGHKVFMVKPEEPFQPVKEATQL [I110E]	0.0619				0.0422	0.115				0.048		0.0382	0.0526	0.053		0.0586		0.0551	0.0442
MGESLFKGPRDYNPISSSICHLTNESDGHTTSLYGIGFGPFIITNKHLFRRNNGTLVVQSLHGVFKVKDTTTLQQHLVDGRDMIIIRMPKDFPPFPQKLKFGEPQREERICLVTTNFQTKSMSSMVSDTSCTFPSGDGIFWKHWIQTKDGQCGSPLVSTRDGFIVGIHSASNFTNTNNYFTSVPKNFMELLTNQEAQQWVSGWRLNADSVLWGGHKVFMVKPEEPFQPVKEATQL [R102G]	0.0421	0.0511	0.0526	0.0502		0.0494	0.0531	0.0552	0.0609	0.0445	0.0498	0.0505	0.0627				0.041		0.0461
MGESLFKGPRDYNPISSSICHLTNESDGHTTSLYGIGFGPFIITNKHLFRRNNGTLVVQSLHGVFKVKDTTTLQQHLVDGRDMIIIRMPKDFPPFPQKLKFREPQGEERICLVTTNFQTKSMSSMVSDTSCTFPSGDGIFWKHWIQTKDGQCGSPLVSTRDGFIVGIHSASNFTNTNNYFTSVPKNFMELLTNQEAQQWVSGWRLNADSVLWGGHKVFMVKPEEPFQPVKEATQL [R106G]	0.0549	0.0598	0.0598	0.0673	0.0709					0.0604	0.0628		0.0742	0.056	0.068			0.0393	
MGESLFKGPRDYNPISSSICHLTNESDGHTTSLYGIGFGPFIITNKHLFRRNNGTLVVQSLHGVFKVKDTTTLQQHLVDGRDMIIIRMPKDFPPFPQKLKFREPQKEERICLVTTNFQTKSMSSMVSDTSCTFPSGDGIFWKHWIQTKDGQCGSPLVSTRDGFIVGIHSASNFTNTNNYFTSVPKNFMELLTNQEAQQWVSGWRLNADSVLWGGHKVFMVKPEEPFQPVKEATQL [R106K]	0.0726	0.0741				0.0656	0.0647		0.0824	0.0508			0.0978					0.0583	
